Measurements from PubChem BioAssay (NCATS).
Where “and” joins values, the source holds several entries; their conditions need not be identical. Equal entries are not always repeated. The list shows a part of the results. Shown are side measurements of this screen, not its main read-out; they come without a call. Most of these compounds were active or inconclusive in the main read-out, so they are no random draw.

Test: qHTS Assay for Lipid Storage Modulators (AID 1519)
Settings: Drosophila S3 cells, BODIPY lipid droplet/cell ratio, laser cytometry; measured here: lipid channel max response; cells loaded with oleic acid
In short: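 Cells seeded at 5,000 per well were treated with compounds over a concentration series and loaded with oleic acid (400 uM, as added). Lipid droplet fluorescence (488 nm excitation, 500-530 nm channel) was read by laser-scanning cytometry and normalized to 20 uM Triacsin C.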

Row | Compound | max response
1 | C[C@@H]1C[C@H]2[C@H]3C[C@@H](F)C4=CC(=O)C=C[C@]4(C)[C@@]3(Cl)[C@@H](O)C[C@@]2(C)[C@@H]1C(=O)COC(=O)C(C)(C)C | -30.9%
2 | O=C(c1csnn1)N1CCC2(CC1)CCN(c1ccccn1)CC2 | 35.7%
3 | CS(=O)(=O)N1CCC2(CCN(Cc3nccs3)CC2)CC1 | 31%
4 | CS(=O)(=O)Nc1cccc(-c2nc(NCc3cccnc3)c3ccccc3n2)c1 | 28.9%
5 | CCC(=O)OCC(=O)C1(OC(=O)CC)C(C)CC2C3CCC4=CC(=O)C=CC4(C)C3(Cl)C(O)CC21C (stereo not given) | 36.8%
6 | COC(=O)CC1[C@@]2(C)C[C@@]34OC5(C)OC6(CC[C@@]7(C)C(c8ccoc8)OC(=O)C(C(C)=O)C7[C@]6(O5)C(O)[C@@]3(O)C2O)[C@]14C (stereo not given in full) | 30%
7 | N[C@H]1CONC1=O | 42.9%
8 | O=c1c(-c2cccc(Cl)c2)nc2cncnc2n1C1CC1 | 17%
9 | COc1ccc(-c2c(O)c3c(OC)c4c(cc3oc2=O)OC(C)(C)CC4)cc1 | 38.3%
10 | O=C(c1cccc(F)c1)N1CCC2(CCCN(Cc3nccs3)C2)CC1 | 29.5%
11 | COC(=O)c1c(-c2cc(OC)c(OC)c(OC)c2)c2ccc(OCc3ccccn3)cc2c(=O)n1-c1ccc(N)cc1 | 42.9%
12 | O=C(c1ccco1)N1CCC2(CC1)CN(c1cccc(-c3ccccc3)c1)C2 | 2.72%
13 | N#Cc1cccc(NC(=O)N2CCC3(CC2)CCN(C(=O)c2cnccn2)CC3)c1 | 36.7%
14 | COc1ccccc1CN1CC2(CCN(S(=O)(=O)c3ccccc3)CC2)C1 | 36.5%
15 | CC(Oc1ccc(O)cc1)(P(=O)(O)O)P(=O)(O)O | 27.9%
16 | O=C(c1cc(C(F)(F)F)cc(C(F)(F)F)c1)N1CCC[C@@]2(CCN(Cc3ccccc3)C2)C1 | 6.95%
17 | CN(Cc1ccco1)c1cc(-c2cccc(C#N)c2)ncn1 | 36.5%
18 | Cn1cc(-c2nc3cnc(N4CCOCC4)nc3n(CCC#N)c2=O)c2ccccc21 | 31.2%
19 | COCCn1c(=O)c(-c2cccs2)nc2cnc(Oc3cccc(Cl)c3)nc21 | -26.8%
20 | Cn1c(=O)c(-c2ccccc2)nc2cnc(N3CCOCC3)nc21 | 18.5%

Row | Compound | max response
21 | Cc1nc2cnc(N(C)C)nc2n(C)c1=O | 39%
22 | C1COC(NC(C2CC2)C2CC2)=N1 | 32.2% and 52.4%
23 | C#CCN(C)Cc1ccccc1 | 43%
24 | C[C@H]1C[C@@H]2[C@H]3CCC4=CC(=O)C=C[C@@]4(C)[C@@]3(Cl)[C@@H](O)C[C@]2(C)[C@]1(OC(=O)c1ccco1)C(=O)CCl | -37.4%
25 | C=CCCCCCCCCCCCC(O)CC(O)COC(C)=O (stereo not given) (tested in a mixture with another compound) | 31.4%
26 | COc1ccc(-c2nc3cnc(N(C)C)nc3n(Cc3ccc(F)cc3)c2=O)cc1 | 40.4%
27 | Cc1noc(C)c1-c1nc(N(C)C)c2ccccc2n1 | 7.09%
28 | CC1(C)C(=O)C=C[C@@]2(C)C1C=C[C@@]1(C)C2CC[C@@]2(C)C(c3ccoc3)OC(=O)C3OC312 (stereo not given in full) | -45.6%
29 | COc1ccc(Oc2ncc3nc(-c4ccc(F)cc4)c(=O)n(C[C@H]4CCCO4)c3n2)cc1 | -64.3%
30 | COc1cccc(Nc2ncc3nc(CCc4ccccc4)c(=O)n(Cc4cccs4)c3n2)c1 | 29.2%
31 | NC(N)=Nc1nc(CSCC/C(N)=N\S(N)(=O)=O)cs1 | 34%
32 | Cc1noc(C)c1C(=O)N1CCC2(CCN(Cc3nccs3)CC2)CC1 | 34.5%
33 | CC(=O)OC1CCC2(C)C(=CCC3C2CCC2(C)C3C[C@@H]3O[C@]32C(C)=O)C1 (stereo not given in full) | 30.1%
34 | CN(C)C(=O)c1ccc(-c2nccc(NCc3cccs3)n2)cc1 | 16.8%
35 | COc1cccc(Nc2ncc3ncc(=O)n(C4CC4)c3n2)c1 | 15%
36 | O=S(=O)(c1ccccc1)N1CCC2(CCCN(C(c3ccccc3)c3ccccc3)C2)CC1 | 31.8%
37 | Cc1nc2cnc(Nc3ccccc3)nc2n(CCc2ccccc2)c1=O | 30.6%
38 | O=c1c(-c2ccc(F)cc2)nc2cnc(Oc3cccc(Cl)c3)nc2n1C[C@H]1CCCO1 | -47.4%
39 | CC(=O)N1CCC2(CC1)CCN(c1ccc(-c3ccccc3)cc1)CC2 | -37%
40 | CCOC(=O)C(CCc1ccccc1)NC(C)C(=O)N1Cc2ccccc2CC1C(=O)O (stereo not given) | 44.9%
